# Source: PubChem BioAssay (NCATS)
# Inconclusive means that the source gave no clear call. Such entries were picked first, then a sample of the others. For some assays here: Potencies of inconclusive entries are left out as doubtful fits. Calls of active or inactive are those of the source. The call rests on the fitted dose curve; in most records, active means well fitted curve in the direction sought with a large enough effect; inconclusive means small, poorly fitted or top-dose-only effect, or another doubt; inactive means no such curve, though single readings can be large; an effect the other way counts as inactive or inconclusive.
# What was measured:
# [1] = qHTS of pediatric cancer cell lines to identify multiple opportunities for drug repurposing: Primary screen for Saos-2 cells (AID 1347097); further: nearly all actives have a fitted effect of over 40% in size; further: potency means the concentration at half of the fitted maximal effect
# Method in brief: (§1)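 Cells plated at 500-1,000/well in growth medium, compounds added after 5 h. MIPE tested at 11 points (from 0.78 nM), NPC at 8 points (from 0.59 nM). CellTiter-Glo luminescence after 48 h; concentration-response curves from primary screen.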
# [2] = qHTS of pediatric cancer cell lines to identify multiple opportunities for drug repurposing: Primary screen for NB1643 cells (AID 1347099); further: nearly all actives have a fitted effect of over 50% in size; further: potency means the concentration at half of the fitted maximal effect
# Method in brief: as §1
# [3] = qHTS of pediatric cancer cell lines to identify multiple opportunities for drug repurposing: Primary screen for OHS-50 cells (AID 1347103); further: nearly all actives have a fitted effect of over 40% in size; further: potency means the concentration at half of the fitted maximal effect
# Method in brief: (§2)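 Cells (500-1,000/well) rested 5 h, then received compounds for 48 h; metabolically active cells were measured by CellTiter-Glo luminescence. Final concentrations spanned up to 46 µM (MIPE, 11-point) or 0.59 nM-46 µM (NPC, 8-point) in primary screens, 11-point in follow-ups.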
# [4] = qHTS of pediatric cancer cell lines to identify multiple opportunities for drug repurposing: Primary screen for SK-N-SH cells (AID 1347098); further: nearly all actives have a fitted effect of over 65% in size; further: potency means the concentration at half of the fitted maximal effect;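 on activity change, negative = cytotoxic: DMSO served as neutral control and bortezomib at 2.3 µM as positive control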
# Method in brief: as §2
# [5] = qHTS of pediatric cancer cell lines to identify multiple opportunities for drug repurposing: Primary screen for BT-12 cells (AID 1347101); further: nearly all actives have a fitted effect of over 25% in size; further: potency means the concentration at half of the fitted maximal effect
# Method in brief: as §2
# [6] = qHTS of pediatric cancer cell lines to identify multiple opportunities for drug repurposing: Primary screen for Rh30 cells (AID 1347107); further: potency means the concentration at half of the fitted maximal effect; nearly all actives have a fitted effect of over 75% in size
# Method in brief: (§3)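 Viability after 48 h compound treatment at 37C, 500-1,000 cells/well, read as ATP luminescence with CellTiter-Glo. Primary screens used 11-point (MIPE, 0.78 nM-46 µM) or 8-point (NPC, 0.59 nM-46 µM) final concentrations; follow-up screens used 11-point dilutions.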
# [7] = qHTS of pediatric cancer cell lines to identify multiple opportunities for drug repurposing: Primary screen for RD cells (AID 1347104); further: nearly all actives have a fitted effect of over 55% in size
# Method in brief: as §1
# [8] = qHTS of pediatric cancer cell lines to identify multiple opportunities for drug repurposing: Primary screen for Rh18 cells (AID 1347102); further: nearly all actives have a fitted effect of over 65% in size
# Method in brief: as §3
# [9] = qHTS of pediatric cancer cell lines to identify multiple opportunities for drug repurposing: Primary screen for control Hh wild type fibroblast cells (AID 1347106); further: nearly all actives have a fitted effect of over 55% in size; further: potency means the concentration at half of the fitted maximal effect;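 on activity change, negative = cytotoxic: a drop in luminescence marks cytotoxicity and a rise apparent proliferation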
# Method in brief: as §3
# [10] = qHTS of pediatric cancer cell lines to identify multiple opportunities for drug repurposing: Primary screen for Rh41 cells (AID 1347108); further: nearly all actives have a fitted effect of over 70% in size; further: potency means the concentration at half of the fitted maximal effect;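 on activity change, negative = cytotoxic: luminescence drop marks cytotoxic hits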
# Method in brief: as §1
# [11] = qHTS of pediatric cancer cell lines to identify multiple opportunities for drug repurposing: Primary screen for MG 63 (6-TG R) cells (AID 1347105); settings: MG 63 (6-TG R) viability, CellTiter-Glo, 48 h; activity change, negative = cytotoxic: at 46 µM (top of the series); further: nearly all actives have a fitted effect of over 50% in size; further: potency means the concentration at half of the fitted maximal effect
# Method in brief: as §1
# [12] = qHTS of pediatric cancer cell lines to identify multiple opportunities for drug repurposing: Primary screen for LAN-5 cells (AID 1347100); settings: LAN-5 neuroblastoma viability, CellTiter-Glo luminescence, 48 h; activity change, negative = cytotoxic: at 46 µM (top of the series)
# Method in brief: as §3
# [13] = qHTS of pediatric cancer cell lines to identify multiple opportunities for drug repurposing: Primary screen for U-2 OS cells (AID 1347096); further: potency means the concentration at half of the fitted maximal effect; nearly all actives have a fitted effect of over 50% in size
# Method in brief: as §3
# Tags describe the fitted curve by direction and shape.
smiles,measurement,setting,value
CCC[C@H]1C[C@H](C(=O)N[C@@H]([C@@H]2O[C@@H](SC)[C@@H](O)[C@@H](O)[C@@H]2O)[C@H](C)Cl)N(C)C1,Potency,[1],inactive
same,Potency,[2],inactive
same,Potency,[3],inactive
C[C@@H](Cc1cc2c(c(C(N)=O)c1)N(CCCO)CC2)NCCOc1ccccc1OCC(F)(F)F,Potency,[4],inactive
same,Potency,[2],inactive
same,Potency,[3],"inconclusive [cytotoxic, partial curve]"
CC=CC1=C(C(=O)O)N2C(=O)[C@H](NC(=O)[C@H](N)c3ccc(O)cc3)[C@@H]2SC1,Potency,[1],"inconclusive [cytotoxic, single point]"
same,Potency,[2],active: 20.9 µM
same,Potency,[5],"inconclusive [cytotoxic, single point]"
same,Potency,[3],"inconclusive [cytotoxic, single point]"
Cc1cc(-c2nnc3n2CCCCC3)c(C)n1-c1ccccc1,Potency,[3],"inconclusive [cytotoxic, single point]"
same,Potency,[6],"inconclusive [cytotoxic, partial curve, poor fit]"
CC(NCCc1ccc(O)cc1)C(O)c1ccc(O)cc1 (centres undefined),Potency,[1],inactive
same,Potency,[3],inactive
same,Potency,[7],inactive
CCCCC(F)(F)[C@@]1(O)CC[C@H]2[C@H](CC(=O)[C@@H]2CCCCCCC(=O)O)O1,Potency,[1],inactive
same,Potency,[8],inactive
same,Potency,[7],inactive
same,Potency,[9],inactive
same,Potency,[10],"inconclusive [cytotoxic, partial curve, poor fit]"
C=C1CCC2[C@](C)(CO)C(O)CC[C@]2(C)C1CC=C1C(=O)OCC1O (some centres undefined),Potency,[1],"inconclusive [cytotoxic, full curve, poor fit]"
same,Potency,[2],inactive
Cc1cnc(NC(=O)C2=C(O)c3ccccc3S(=O)(=O)N2C)s1,Potency,[1],inactive
CC(=O)NC[C@H]1CN(c2ccc(N3CCOCC3)c(F)c2)C(=O)O1,Potency,[4],"inconclusive [cytotoxic, single point]"
same,Potency,[11],inactive
CC(O)C1C(=O)N2C(C(=O)O)=C(SC3CNC(C(=O)N(C)C)C3)C(C)C12 (centres undefined),Potency,[2],"inconclusive [cytotoxic, partial curve, poor fit]"
same,Potency,[12],inactive
same,Potency,[5],inactive
same,Potency,[7],inactive
Cn1c(=O)c2c(ncn2C)n(C)c1=O,Potency,[3],inactive
same,Potency,[7],inactive
Nc1c2c(nc3ccccc13)CCCC2,Potency,[1],"inconclusive [cytotoxic, single point]"
same,Potency,[12],inactive
same,Potency,[7],inactive
same,Potency,[10],inactive
C[C@@]12C[C@@]3(O)O[C@@H](O1)[C@]1(COC(=O)c4ccccc4)[C@@H]3C[C@@]12O[C@@H]1O[C@H](CO)[C@@H](O)[C@H](O)[C@@H]1O,Potency,[3],inactive
NS(=O)(=O)c1cc(Cl)c(Cl)c(S(N)(=O)=O)c1,Potency,[4],inactive
same,Potency,[2],"inconclusive [cytotoxic, partial curve, poor fit]"
Cc1ccc(-c2ncn(-c3ccc(Nc4nccc(-c5cccc(N6CCOCC6)c5)n4)cc3)n2)cn1,Potency,[13],active: 0.235 µM
same,Potency,[4],active: 0.383 µM
same,Potency,[5],active: 0.122 µM
same,Potency,[9],active: 0.166 µM
same,Potency,[6],"inconclusive [cytotoxic, full curve, poor fit]"
same,Potency,[10],active: 0.132 µM
CCOc1cc(N)c(Cl)cc1C(=O)NCC1CN(Cc2ccc(F)cc2)CCO1 (centres undefined),Potency,[2],"inconclusive [cytotoxic, partial curve, poor fit]"
same,Potency,[5],"inconclusive [cytotoxic, single point]"
same,Potency,[3],"inconclusive [cytotoxic, single point]"
same,Potency,[11],"inconclusive [cytotoxic, full curve]"
N[C@@H](C(=O)N[C@@H]1C(=O)N2C(C(=O)O)=C(Cl)CS[C@H]12)c1ccccc1,Potency,[3],inactive
Nc1nc(=O)n([C@H]2CSC(CO)O2)cc1F (some centres undefined),Potency,[5],inactive
Nc1ccc(S(=O)(=O)Nc2ncccn2)cc1,Potency,[4],"inconclusive [cytotoxic, single point]"
CC[C@H](CC[C@@H](C)[C@H]1CC[C@H]2[C@@H]3CC=C4C[C@@H](O)CC[C@]4(C)[C@@H]3CC[C@]12C)C(C)C,Potency,[4],"inconclusive [cytotoxic, partial curve]"
same,Potency,[2],"inconclusive [cytotoxic, partial curve]"
same,Potency,[7],inactive
same,Potency,[10],"inconclusive [cytotoxic, partial curve, poor fit]"
Cc1cc(NS(=O)(=O)c2ccc(N)cc2)no1,Potency,[9],"inconclusive [cytotoxic, full curve, poor fit]"
CC(C)OC(=O)[C@H](C)N[P@](=O)(OC[C@H]1O[C@@H](n2ccc(=O)[nH]c2=O)[C@](C)(F)[C@H]1O)Oc1ccccc1,Potency,[1],"inconclusive [cytotoxic, full curve]"
same,Potency,[5],inactive
same,Potency,[3],inactive
